Over roughly 110,000 compounds, “z-score” has its median near -0.1; the highest 2% begin near 2. The list shows a part of the results. The source made the active and inactive calls.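 The calls were made as follows: active = z-score in the third read window above 3 or below -3; inactive = the rest.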

In PubChem BioAssay AID488969 (Vanderbilt High Throughput Screening Facility, 2010) one finds z-score data, which are given here for 112 molecules.

The assay addresses Metabotropic glutamate receptor 8 (Rattus norvegicus) (UniProt P70579). Kind of assay: rat mGluR8 modulators via GIRK flux, primary screen, cell-based, thallium flux, HTS (AID 488969). The settings on record: HEK293 rat mGluR8, GIRK (G protein-gated inwardly rectifying potassium channel) thallium flux, FluoZin2; at 10 µM; stronger effect = higher value; submaximal glutamate (EC20) added with thallium.
Chain of UniProt P70579 (P70579 whole entry, looked up): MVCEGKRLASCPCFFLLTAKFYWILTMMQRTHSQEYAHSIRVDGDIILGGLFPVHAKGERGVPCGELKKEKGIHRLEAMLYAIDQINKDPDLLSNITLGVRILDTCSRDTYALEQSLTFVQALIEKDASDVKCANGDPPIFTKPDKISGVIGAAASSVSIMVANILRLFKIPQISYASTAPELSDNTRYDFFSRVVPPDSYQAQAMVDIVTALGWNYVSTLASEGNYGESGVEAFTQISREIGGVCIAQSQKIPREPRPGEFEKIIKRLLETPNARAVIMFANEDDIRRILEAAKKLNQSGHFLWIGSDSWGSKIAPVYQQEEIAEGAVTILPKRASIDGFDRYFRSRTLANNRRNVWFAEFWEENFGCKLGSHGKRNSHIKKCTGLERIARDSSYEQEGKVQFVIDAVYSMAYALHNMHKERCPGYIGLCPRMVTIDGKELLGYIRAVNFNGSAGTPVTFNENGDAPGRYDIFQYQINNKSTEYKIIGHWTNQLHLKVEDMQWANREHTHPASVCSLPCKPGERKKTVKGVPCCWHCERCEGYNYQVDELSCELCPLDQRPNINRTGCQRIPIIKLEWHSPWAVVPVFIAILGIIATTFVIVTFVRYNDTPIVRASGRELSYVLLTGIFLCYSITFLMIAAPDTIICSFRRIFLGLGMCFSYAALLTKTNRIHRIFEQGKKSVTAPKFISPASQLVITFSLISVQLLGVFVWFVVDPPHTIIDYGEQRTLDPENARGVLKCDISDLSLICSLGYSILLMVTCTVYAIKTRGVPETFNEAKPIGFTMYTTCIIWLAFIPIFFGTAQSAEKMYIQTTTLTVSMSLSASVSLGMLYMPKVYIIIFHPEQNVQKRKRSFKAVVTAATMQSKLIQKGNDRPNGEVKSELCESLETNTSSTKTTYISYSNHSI
`CC(C)CN=Cc1c(O)c([N+](=O)[O-])cc2oc3c(c12)CCCC3` had a z-score of -1.28.

Consider `Cn1c(SCC(=O)c2cc3ccccc3o2)nnc1-c1ccccc1`, for which the z-score is active: 4.93. In the case of `COc1ccc(NC(=O)CC(c2ccc(F)cc2)c2ccc(OC(C)C)cc2)cc1` (configuration not stated), the z-score was -2.06.

`CCO/C(C)=N/n1c2nc3ccccc3nc2c2c(=O)n(C3CCCC3)c(C)nc21` showed a z-score of 1.96. `Cc1ccc(C)c(S(=O)(=O)NCc2cccnc2)c1` came in with a z-score of -0.183. Consider `O=C(O)c1nc(N2CCCCC2)ncc1Cl`, for which the z-score was -0.206. As to `Cc1ccc(C)c(C(=O)CCC(=O)Nc2cccnc2)c1`, the z-score was -0.00121. `CCCn1c(C)cc(C(=O)CSc2nc3nc(C)cc(C)n3n2)c1C`: the z-score is -0.661. Turning to `CC(Sc1nnc(-c2ccc(Cl)cc2Cl)n1Cc1ccccc1)C(=O)Nc1nccs1` (configuration not stated), the z-score is -1.54. With `N#CCSc1nc2[nH]ncc2c(=O)n1-c1ccccc1Br`, the z-score turned out to be 0.0767. Molecule `Cc1cc2ccccc2n1CCNC(=O)COc1ccccc1` came in with a z-score of -0.407. For the molecule `S=C(Nc1ccc(Cl)cc1Cl)N1CCOCC1`, the z-score was -0.325. Turning to `CCc1ccccc1N(CC)C(=O)c1cn(CC)c(=O)c2cc(OC)c(OC)cc12`, the z-score is -0.842. For the molecule `CC1CCc2nn(CC(=O)NCCN3CCCCC3C)cc2C1` (configuration not stated), the z-score was determined as 0.216.

In the case of `O=C(CSCc1ccccc1)N1CCN(Cc2ccc3c(c2)OCO3)CC1`, the z-score was -0.236. With `CCN(CC)CCN1C(=O)C(=O)/C(=C(/O)c2c(C)[nH]c(C(=O)OC)c2C)C1c1cccs1` (configuration not stated), the z-score was -0.36. `O=C(C1CCCN(Cc2ccccc2C(F)(F)F)C1)N1CCCCC1` (configuration not stated): the z-score is -1.27. The same measure for `COc1ccc(NC(=O)CC2SC(=Nc3ccccc3)NC2=O)c(OC)c1` (configuration not stated): 0.857; for `COc1cccc(Cn2c(-c3nonc3N)nc3ccccc32)c1`: 0.0572. `O=C(c1ccc(Br)o1)N(c1ccccn1)C1CCCCC1` displayed a z-score of -0.175.

For `COc1ccc2c(c1)-c1c(ssc1=S)C(C)(C)N2S(=O)(=O)c1ccc(C)cc1`, the z-score was -0.0351. The same measure for `O=c1[nH]c(Nc2ccc(F)cc2)cc2ccccc12`: -0.11; for `COC(=O)C1=C(C)NC(=O)C1(NC(=O)CN1CCCC1=O)C(F)(F)F` (configuration not stated): 0.447; for `COC(=O)C1=C(N)c2c(F)cccc2C1(C#N)c1ccccc1` (configuration not stated): -0.579. Regarding `CNC(=O)c1ncnnc1N(C)C(=O)NCc1ccccc1`, the z-score came out at 0.334. In turn, `Cc1c(Nc2nc3ccccc3nc2NS(=O)(=O)c2ccccc2)c(=O)n(-c2ccccc2)n1C` came in with a z-score of -0.716. In turn, `COc1ccc(CNC(=O)C(c2ccncc2)N(C(=O)Cc2cccs2)c2cccc(C)c2)cc1` (configuration not stated) yielded a z-score of -0.197. The same measure for `Cc1cc(C)cc(NC(=O)/C=C/c2ccc([N+](=O)[O-])s2)c1`: 0.74; for `O=C1CC(c2ccc(Br)cc2)NC(c2ccc(Br)cc2)C1c1ccccc1` (configuration not stated): -0.141; for `COCCCNC(=O)C1CCN(c2nc(C)cc(C)n2)CC1`: 0.615.

Consider `N#CCCn1c(SCC(=O)NCCc2ccc(F)cc2)nc2ccccc21`, for which the z-score was found to be 0.367. As for `CN1CCN(CC(=O)Nc2c(C(=O)C3CC3)oc3ccccc23)CC1`, the z-score was -0.346. `COc1ccc(N2CCN(C(=O)c3cn(C4CCCC4)c(=O)c4c3c3ccccc3n4C)CC2)cc1` showed a z-score of -0.454. As for `Cc1ccc2[nH]cc(CCNC(=O)CN3C(=O)c4ccccc4C3=O)c2c1`, the z-score is -0.118. For the molecule `Cc1ccc(NC(=S)NCc2ccc3c(c2)OCO3)cc1`, the z-score was 0.205. In turn, `COC(=O)CSc1nc(SCc2ccc(C)cc2)nc2c1CCCC2` yielded a z-score of -0.536. `Cc1ccc(C)c(S(=O)(=O)NC(CC(C)C)C(=O)O)c1` (configuration not stated): the z-score turned out to be 0.031. Take `CCc1ccc(NC(=O)COc2ccc(/C=C(/C#N)c3nc4ccccc4[nH]3)cc2OC)cc1`: the z-score was -0.248. The same measure for `COc1cc(NC(=O)CSc2ccccc2)c(C(=O)O)cc1OC`: -0.309; for `Cc1ccc(C(=O)NC(=S)NCC2CCCO2)cc1` (configuration not stated): -0.155; for `O=C(N=C1SCC(=O)N1c1ccccc1)c1ccco1`: 0.173. With `COCC(=O)N(c1ccc(C(C)C)cc1)C1C=CS(=O)(=O)C1` (configuration not stated), the z-score was -0.253.

The molecule `O=C(Nc1nccs1)c1nc(-c2ccccc2)n(-c2ccccc2)n1` yielded a z-score of 0.663. In turn, `Fc1ccc(CN2CCN3CCCC3C2C2CCCCC2)cc1F` (configuration not stated) registered a z-score of 0.36. The same measure for `COc1ccc(NC(=O)Nc2cccc3cccnc23)cc1`: -0.361; for `CCOc1cccc2sc(Nc3nc4ccc(NC(C)=O)cc4s3)nc12`: -0.153; for `O=C(Nn1cnnc1)C1CCCN1S(=O)(=O)c1ccc(F)cc1` (configuration not stated): 1.78.

Molecule `COc1ccc(NC(=O)COC(=O)C(CC(C)C)N2C(=O)C3CC=CCC3C2=O)cc1Cl` (configuration not stated) showed a z-score of -0.163. `COc1ccc(C(=O)N/N=C/c2cc3ccccc3[nH]c2=S)cc1`: the z-score was -0.277. As for `CCOc1cc(/C=C2/C(=O)ON=C2C)ccc1OCc1ccccc1F`, the figure is 0.0383. On to `O=C(CSc1nc2ccccc2o1)N1CCN(c2ccc(Cl)cc2)CC1`, for which the z-score was -0.237. As for `CC1=CC(C)(C)NC(=S)N1c1ccc(C)cc1`, the z-score worked out at 0.241. In the case of `O=C(NN=C1CCCC1)NC1CCCCC1`, the z-score is -0.219. As for `Cc1ccc(NC(=O)C(=O)NCCOc2ccccc2Cl)cc1`, the figure is -0.128.

Consider `O=C1Nc2cc(Cl)c(Cl)cc2N(O)N1c1ccc(Cl)c(Cl)c1`, for which the z-score was -0.447.

For the molecule `CNc1nc(Oc2ccc(=O)n(C)n2)nc(N2CCOCC2)n1`, the z-score is -0.336. In the case of `Cc1ccccc1NC(=S)NNC(=O)c1csc2c1CCC(C)C2` (configuration not stated), the z-score is active: 8.84. `O=C1CSCC(=O)N1c1ccccc1` returned a z-score of -0.0628. The same measure for `COc1cccc(NC(=O)CC(C)=O)c1`: 0.0348; for `COc1ccc(N2CCN(C(=O)CSc3nnc(Cn4nnc5ccccc54)n3C)CC2)cc1`: 0.0499.

`CCSc1ccccc1C(=O)NCc1ccc2c(c1)OCO2` showed a z-score of -0.45. The molecule `CCCOP(=O)(c1ccccc1)c1ccccc1` gave a z-score of 0.167. Molecule `COCCNC(=O)CCCCCn1c(=S)[nH]c2ccccc2c1=O` showed a z-score of 1.77. As to `Cc1nc(-c2ccccc2)sc1-c1nc(-c2cccnc2)ncc1S(=O)(=O)c1ccccc1`, the z-score was determined as 0.0175. Molecule `O=Cc1ccc2noc(-c3ccc(Cl)cc3)c2c1` yielded a z-score of 0.119. The molecule `COC(=O)c1ccc(NC(=O)CSCc2ccccc2)cc1` gave a z-score of -0.454. In turn, `O=C(/C=C/c1ccc(Cl)cc1)Nc1ccccc1N1CCOCC1` had a z-score of -0.282. Turning to `CN1C=CC=C/C1=C1\SC(=S)N(c2ccccc2)C1=O`, the z-score was -0.106. The same measure for `Cc1cc(OCC(=O)N2CCc3ccccc3C2)c2c(-c3ccccc3)cc(=O)oc2c1`: -0.197; for `CC(C)Cn1c(-c2ccco2)n[nH]c1=S`: -0.0867. The same measure for `Cc1ccc(N2C(=O)C(O)(C(F)(F)F)C3=C2CC(C)(C)CC3=O)cc1` (configuration not stated): 0.237; for `Nc1nc(-c2cccs2)cs1`: -0.068. The molecule `COc1ccc(CCNC(=O)CSc2ncn[nH]2)cc1` came in with a z-score of 0.862.

The molecule `CCn1c(Cc2ccccc2)nnc1SCC(=O)Nc1nc2ccccc2s1` showed a z-score of 0.0953. As for `Cc1ccc(SCc2[nH]nc3c2C(c2ccc(C)o2)C(C#N)=C(N)O3)cc1` (configuration not stated), the figure is -0.407; as for `N=c1sccn1CC(=O)Nc1ccc2c(c1)CCC2`, 1.96. For the molecule `C/C(CC(=O)Nc1ccccn1)=N\NC(=O)Cc1cccc2ccccc12`, the z-score is -0.0604. `CS(=O)(=O)Nc1nnc(SCC(=O)N(c2ccccc2)c2ccccc2)s1` displayed a z-score of -0.0733. The same measure for `Cc1cc(NS(=O)(=O)Cc2ccccc2)cc(C)c1OCC(=O)N1CCOCC1`: -0.188.

On to `CCc1ccc(-c2nc(CN3CCC(C(=O)NCc4ccc(F)cc4)CC3)c(C)o2)cc1`, for which the z-score was -0.352. The molecule `N#Cc1ccc(-c2ccc(Cl)cc2)nc1Oc1ccc(F)cc1` yielded a z-score of -0.78. `CC1=C(C#N)C(NC(=O)C(C)(C)C)(C(F)(F)F)C(=O)N1` (configuration not stated) came in with a z-score of -0.0109. As for `Cn1nc(-c2ccc(OCC(=O)Nc3cccnc3)cc2)c2ccccc2c1=O`, the z-score is -0.0224. For the molecule `O=S(=O)(Cc1ccccc1)N1CCN(C2Cc3ccccc3C2)CC1`, the z-score is -0.00479.

Turning to `CCC(C)c1ccccc1NC(=O)COC(=O)CCc1cc(OC)c(OC)c(OC)c1` (configuration not stated), the z-score was -0.481. Molecule `CCOc1ccc(-n2cc(C(=O)Nc3cccc(OC)c3)c3cc(OC)c(OC)cc3c2=O)cc1` had a z-score of -0.195. With `COc1ccc(/C=C(/NC(=O)c2ccc(C)cc2)c2nc3ccccc3[nH]2)cc1OC`, the z-score is -0.124. `COC(=O)C1=C(C)N(C2CCCC2)C(=O)C1(NC(C)=O)C(F)(F)F` (configuration not stated): the z-score is -0.225.

The molecule `CCCCCn1cnc2sc(CC)cc2c1=O` returned a z-score of -0.4. The same measure for `COc1ccc(Oc2coc3cc(OCC(=O)N4CCCCC4)ccc3c2=O)cc1`: -0.212; for `CC1=CC(C)(C)Nc2ccc(OC(=O)CN3C(=O)c4cccc5cccc(c45)C3=O)cc21`: -0.208.

Take `Cc1oc(-c2ccccc2F)nc1CS(=O)(=O)CC(=O)NCCCN1CCc2ccccc2C1`: the z-score was 0.0639. As for `O=C(c1ccc(F)cc1)N1CCN(c2ccc([N+](=O)[O-])c(N3CCCCC3)c2)CC1`, the figure is -1.01. The molecule `COc1ccc(C2=NN(CN3C(=O)C(=O)c4ccccc43)C(c3ccc(Br)cc3)C2)cc1` (configuration not stated) returned a z-score of -0.114. Molecule `CSc1cccc(-n2cc(-c3ccc4c(c3)OCO4)[nH]c2=O)c1` returned a z-score of 0.264. The same measure for `CCc1ccc(CCC(=O)Nc2nnc(C)s2)o1`: -0.0371.

For `CCOC(=S)SCC(=O)N1CCc2ccccc2C1C1C(=O)CCCC1=O` (configuration not stated), the z-score was -0.248. Regarding `Cc1c(Cc2ccccc2)sc(NC(=O)Cc2ccccc2)c1C(N)=O`, the z-score came to 0.107.

For `CCCc1ccc(Oc2cc(C)nc(N3CCOCC3)n2)cc1`, the z-score is -0.0499. Molecule `Cc1ccc(C)c(S(=O)(=O)N2C(=S)NC(=O)C2CC(C)C)c1` (configuration not stated) gave a z-score of -0.119. With `O=c1cc(Cl)c(-c2ccccc2)n[nH]1`, the z-score is -0.334. `CC(C)NC(=O)Cn1nnc(-c2ccc(Cl)cc2)n1`: the z-score came to 0.327.

For `Cc1cc(O)c(NC(=S)NC(=O)c2ccc(-c3ccc(Cl)cc3)o2)cc1C`, the z-score was 0.116.

For `Cn1ncc2c(NNC(=O)c3ccc(Cl)cc3Cl)ncnc21`, the z-score was 0.184. In turn, `O=C(Nc1nnc(SCc2ccc(F)cc2)s1)C1Cc2ccccc2CN1C(=O)c1ccco1` (configuration not stated) yielded a z-score of -0.161. As for `CCCc1nnc(NC(=O)c2cccs2)s1`, the figure is -0.163; as for `Cc1ccc(Nc2cc(=O)n(C3CCCCC3)c(=O)[nH]2)cc1C`, 0.499. The same measure for `COc1cccc(-c2nc3n(n2)C(c2ccc4c(c2)OCO4)C(C(N)=O)=C(C)N3)c1` (configuration not stated): -1.06. In the case of `Nc1nonc1-c1noc(N2CCOCC2)n1`, the z-score came to 0.00406.

In turn, `COC(=O)Cn1cc(C#N)c2ccccc21` had a z-score of 0.0457. With `CCOc1ccc(C(=O)N2CCCC2)cc1OC`, the z-score is -0.394. As for `O=C(NC1CCCCC1)c1ccc(CNc2c(N3CCOCC3)c(=O)c2=O)cc1`, the figure is -0.201.
